Results from PubChem BioAssay AID2202238 (Ras Initiative Chemistry Research Team, Frederick National …, 2025).
This is one part of the list. The main result of the screen is listed elsewhere. These columns were measured beside it and carry no call.

Target: GTPase KRas (Homo sapiens) (UniProt P01116)
Assay: Cysteine mutants labelled by reactive fragments (mass read-out) (AID 2202238)
Design: protein at 5 µM with 500 µM competing thiol for 1.5 h
Settings: KRAS G12D cysteine mutants, disulfide tethering, MALDI-TOF labeling, stronger effect = higher value, fragment at 500 µM
[1] = measured here: G60C mutant labeling
[2] = measured here: G75C mutant labeling
[3] = measured here: H94C mutant labeling
[4] = measured here: I36C mutant labeling
[5] = measured here: L120C mutant labeling
[6] = measured here: M67C mutant labeling
[7] = measured here: M72C mutant labeling
[8] = measured here: N26C mutant labeling
[9] = measured here: N86C mutant labeling
[10] = measured here: P121C mutant labeling
[11] = measured here: S122C mutant labeling
[12] = measured here: S136C mutant labeling

Sequence of UniProt P01116 (P01116 whole entry, looked up, the tested form may be a part): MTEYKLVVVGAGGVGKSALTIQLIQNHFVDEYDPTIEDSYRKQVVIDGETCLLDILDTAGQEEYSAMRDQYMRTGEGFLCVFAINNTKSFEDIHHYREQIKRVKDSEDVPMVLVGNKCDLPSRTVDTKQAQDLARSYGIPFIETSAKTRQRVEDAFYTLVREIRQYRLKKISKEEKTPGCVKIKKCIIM

SMILES	percent labeling [1] [%]	percent labeling [2] [%]	percent labeling [3] [%]	percent labeling [4] [%]	percent labeling [5] [%]	percent labeling [6] [%]	percent labeling [7] [%]	percent labeling [8] [%]	percent labeling [9] [%]	percent labeling [10] [%]	percent labeling [11] [%]	percent labeling [12] [%]
O=C(NCCS)c1cc(-n2cccc2)ccc1Cl	25.2	4.1	12.6	8.7	15	10.4	7.9	22.8	5.1	20.5	11.3	3
O=C(CCS)Nc1ncc(Cc2cccc(Cl)c2)s1		17.4	8.6	17.9	15.8	23.1	24.4		12.1	15.6	8.9	20.2
CCc1nn(C)c(CC)c1CC(=O)NCCS	33.1	12.3	30	20	30	30.8	15.8	33	21.1	28.2	28.7	38.8
O=C(CCn1c(=O)oc2ccccc21)NCCS	32.4	11	32.7	28.3	33.9	38	22.4	31.9	22.5	37.6	27.8	41.2
Cn1cc(-c2cncc(C(=O)NCCS)c2)cn1	25.4	17.6	25	22.2	28.3	28	45.6	56.5	10.6	21.5	24.9	41.9
O=C(CCS)N1CCCC(c2ccn[nH]2)C1 (configuration not stated)		17.4	36.9	41.5	29.3	38.2	29		23.3	36.1	36.7	58.9
O=C(NCCS)C1(C(F)(F)F)CCN(c2ccccn2)C1 (configuration not stated)	40.5	17.6	25.9	22.2	25.4	31.3	16.4	32.6	24.2	21.4	17.3	41.7
Cc1ccc(-c2cc(NC(=O)CCS)n[nH]2)cc1		17.6	15	28.9	20.3	9.2	62.2		26.7	23.5	12.1	32.4
O=C(CCS)Nc1ccccc1N1CCC(CO)CC1		23.7	61.5	36.7	20.9	35.2	47.8		27.6	27.6	26.6	49.9
Cc1ncsc1C(=O)NCCNC(=O)CCS		8	33.1	38.9	25.5	33.5	12.5		19.2	32.4	33	44.7
Cc1cc(Br)cc2cc(C(C(C)C)N(C)C(=O)CCS)oc12 (configuration not stated)		24.2	52.7	29.1	26.5	32.2	28.8		20.2	30.8	11.5	50
Cn1ccnc1Cn1cccc(NC(=O)CCS)c1=O		11.5	28.1	35	35.8	34.9	23.6		32.7	28.9	29.8	49.4
Cc1cc(C)n(-c2ccc(C(=O)NCCS)cc2F)n1	48.1	14.8	26.5	22	29.4	21.4	48.4	34	22.4	24.8	21.2	43.6
O=C(NCCS)c1cnn2cccc(Br)c12	41.3	21.1	34.3	24.2	32.1	37.3	61.5	44.6	28.2	32.7	28.5	50.2
O=C(NCCS)c1ccc2c(ccn2Cc2ccccc2)c1	21.2	11.3	15.4	11.4	15.3	15.9	41.3	20.3	14.3	16.3	7.2	12.9
O=C(CCS)N1CCC(O)(c2cccc3cnccc23)CC1		20.8	32.6	41.6	29.9	55.2	44.5		33.7	29.4	24.1	55.9
O=C(CCS)N1CCN(c2cc(F)cc(F)c2)CC1		16.1	26.7	22.5	22.5	24.1	39		19.9	25.1	22.3	44.5
O=C(CCS)Nc1ccc2[nH]c(=O)sc2c1		12.7	25.9	32.8	19.3	14.5	54.2		11.4	18.3	18.7	39.9
COc1cc(C(=O)NCCS)cc2c1OC(C)C2 (configuration not stated)	35.6	16.1	24.8	24	29	20	42.4	45.3	15.4	21.1	24.2	46.4
COc1cccc(-c2cc(C(=O)NCCS)[nH]n2)c1	19.7	16.4	16.9	11.6	22.1	12.2	51.9	29.8	15.5	17.1	13	19.5
O=C(NCCS)c1ccccc1O	40.7	30.6	37.3	37.5	43.6	28.8	47.1	34.2	32.9	35.1	29.4	37.7
COc1ccc(-c2cc(C(=O)NCCS)sc2C)cc1	47.8	30.2	25.1	19.3	24.5	12	77.7	37.5	15.6	18.1	9.8	33.8
Cc1nc(N2CCN(C)CC2)ccc1NC(=O)CCS		8.4	31.4	34.8	24.9	43.6	20.1		29.4	25.8	24.1	50.6
Cc1c(NC(=O)CCS)cccc1N1CCCCC1		5.5	14.1	14.6	18.5	17.4	27.9		0	16.2	16.8	27.5
O=C(NCCS)c1cn(-c2ccc(Cl)c(Cl)c2)cn1	14.7	13.8	10.4	10.4	11.5	8.4	56	21	9.4	10.5	6.4	12.7
Cc1cc(C)n(Cc2cccc(C(=O)NCCS)c2)n1	42.7	19.3	37.9	25.3	43	33.5	37.9	44.2	27.7	26.7	27.4	58.9
Cc1noc(C2COCCN2C2CN(C(=O)CCS)C2)n1 (configuration not stated)		9.2	27.3	33.7	30	31.6	16.1		22	28.7	28.5	44.1
CCOC(=O)c1sc(NC(=O)CCS)cc1C1CC1		9.2	15.5	18.9	12.7	11.2	39.7		12.1	12.4	9.6	25.4
O=C(NCCS)C1C2Cc3ccc(Br)cc3C21 (configuration not stated)	36.8	8.3	17	14.7	15.3	21.7	31.6	28.5	10.6	15	10.2	19.4
COC1CC2(CCC(C(=O)NCCS)CC2)C1 (configuration not stated)	31.2	13.9	32.6	22.8	35.1	32.6	27	39.4	31.7	29.2	32.9	47.6
